Reference: the supplement of paper PMC12217912
The other results are listed elsewhere or left out. The full chains were built here from the parent and the listed change. Inactive controls read about 0.05.

B1: TEV protease; numbered along this chain (parent)
chain: MGESLFKGPRDYNPISSSICHLTNESDGHTTSLYGIGFGPFIITNKHLFRRNNGTLVVQSLHGVFKVKDTTTLQQHLVDGRDMIIIRMPKDFPPFPQKLKFREPQREERICLVTTNFQTKSMSSMVSDTSCTFPSGDGIFWKHWIQTKDGQCGSPLVSTRDGFIVGIHSASNFTNTNNYFTSVPKNFMELLTNQEAQQWVSGWRLNADSVLWGGHKVFMVKPEEPFQPVKEATQL

Variants of: B1
Test: raw area under fraction-flipped curve 0-4 h after induction (AUC4h, not background-subtracted), DNA-recorder readout of cleavage of the substrate (dimensionless); higher = more cleavage of the substrate by the protease variant
Details: temperature: 34 °C; time window: 0-4 h after rhamnose induction
Description: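 In vivo DNA recorder in E. coli TOP10(DE3) ΔrhaA at 34 °C. Each TEVp single-site mutant (parent TEVp 0) is paired with a single-site variant of the 7-mer TEVs (canonical ENLYFQ|S). The substrate sits between flexible linkers in a Bxb1-sfGFP-TEVs-SsrA fusion, so cleavage stabilises Bxb1 and speeds flipping of a recombination array, read by NGS. The value is the raw area under the fraction-flipped curve over 0-4 h after rhamnose induction (AUC4h), with ≥20 reads per time point. It is not background-subtracted; inactive controls average about 0.047.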
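Also: Bxb1 expression induced with 0.2% (w/v) L-rhamnose at OD600 near 0.5, cultures sampled hourly, flipped fraction per protease–substrate barcode pair counted by paired-end Illumina sequencing.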

Variant	area with substrate EALYFQS	area with substrate EFLYFQS	area with substrate EGLYFQS	area with substrate EILYFQS	area with substrate EKLYFQS	area with substrate ELLYFQS	area with substrate EQLYFQS	area with substrate ESLYFQS	area with substrate EVLYFQS	area with substrate EWLYFQS	area with substrate ECLYFQS	area with substrate EDLYFQS	area with substrate EELYFQS	area with substrate EHLYFQS	area with substrate EMLYFQS	area with substrate EPLYFQS	area with substrate ETLYFQS	area with substrate ERLYFQS	area with substrate EYLYFQS
E224R	0.0553	0.104	0.102	0.0666	0.0876	0.0812	0.102	0.0969	0.0885	0.0981									
Q75P	0.0623	0.0712	0.065	0.059	0.0531	0.0616	0.091	0.0585	0.0591	0.0719	0.0524	0.0655	0.0566	0.0633	0.0545	0.0576	0.0518		
M88W	0.071			0.0898	0.0761	0.11	0.0984	0.0907			0.0883	0.0841				0.0694		0.0767	0.0796
K120F	0.105	0.105		0.0874	0.07	0.123	0.104	0.105	0.0758		0.122	0.116	0.127	0.119	0.121			0.0612	
P40R	0.12	0.0943		0.121	0.112		0.131	0.133	0.0917			0.148		0.116	0.107			0.0922	0.129
G28L	0.102	0.0844		0.0873	0.0812		0.0986	0.0883	0.0835	0.0815	0.0827	0.0853	0.0974	0.118	0.0864		0.0746	0.0975	0.0982
G150E	0.0578	0.0682	0.0489	0.0566	0.064	0.0619	0.0545	0.0544	0.0623	0.0648	0.0537	0.062	0.0649	0.0614	0.0503	0.0679	0.0602	0.0503	
P96V	0.125	0.111	0.0816	0.101	0.0945	0.0836	0.107	0.0984	0.0885	0.0896	0.105	0.122	0.165		0.105	0.115	0.1	0.0839	0.0878
W144P	0.197		0.0839	0.0721	0.0856		0.104	0.0886	0.082	0.0656	0.0808	0.106	0.106	0.0801			0.0964	0.0796	0.0794
W144Y	0.0891		0.0631	0.0759	0.0809	0.0689		0.0901			0.0939	0.11	0.0905	0.102	0.101	0.0792		0.0951	
S32E	0.0796	0.104	0.0955	0.0745	0.0913	0.071	0.0907	0.0892	0.103	0.0726	0.0763	0.0963	0.103	0.101	0.0772	0.102	0.111	0.0838	0.105
S32L	0.0797	0.0845		0.0919	0.0933		0.119	0.114	0.0974	0.0911	0.0972		0.115	0.0719	0.112	0.13	0.11	0.107	
S32P	0.0668	0.068		0.0408	0.0651	0.0516		0.0607	0.0575	0.0632	0.0608	0.0547		0.0613		0.0648	0.0629	0.0578	
I43K	0.0416	0.0501	0.027	0.0485		0.055	0.0713	0.0472	0.0261	0.0444	0.0343	0.0297	0.0548		0.049	0.0414	0.0484		
I19R	0.0571	0.056	0.0578	0.0511	0.0707	0.0589	0.0715	0.0625	0.0587	0.0586	0.0499	0.0597	0.059	0.056	0.0697	0.0607	0.0408	0.0655	0.0409
L48N	0.0639	0.0675	0.0547	0.0631		0.0632	0.0707	0.0599	0.0581	0.0521	0.0592	0.0622	0.0538	0.0623	0.0849			0.0808	
R160V	0.103	0.115		0.0896	0.13	0.11	0.104	0.114	0.0954	0.106	0.106	0.145	0.104	0.123	0.111	0.127	0.125	0.0894	
D208K	0.0873		0.0498				0.0921		0.0645						0.0822			0.0677	
D208V	0.0745		0.0596	0.0771	0.0643	0.0706		0.0684	0.0759	0.0567	0.0776		0.083	0.0737	0.0869		0.0566	0.08	0.0586
L112S	0.0717	0.0792		0.0045	0.0632	0.0594	0.0565	0.0762	0.0659	0.0751		0.134			0.0824	0.0717	0.102		
S16C	0.113		0.111	0.094	0.118	0.1	0.112	0.112	0.0937	0.109	0.123	0.111	0.141		0.114	0.131	0.144	0.0942	0.0876
S16V	0.123	0.101	0.11	0.0942	0.0967	0.0708	0.143	0.102	0.0984	0.0956	0.121		0.1	0.125	0.133	0.121	0.124	0.0847	
S16H	0.116	0.0972	0.0883	0.0953	0.132	0.0846	0.138	0.102	0.0981	0.0858	0.088	0.123	0.119	0.0986	0.111	0.126	0.126	0.086	0.101
